Some of the results follow. At the low end of the ranking the order means little.
Target: T1, ELK1 (UniProt P19419)
T1 sequence: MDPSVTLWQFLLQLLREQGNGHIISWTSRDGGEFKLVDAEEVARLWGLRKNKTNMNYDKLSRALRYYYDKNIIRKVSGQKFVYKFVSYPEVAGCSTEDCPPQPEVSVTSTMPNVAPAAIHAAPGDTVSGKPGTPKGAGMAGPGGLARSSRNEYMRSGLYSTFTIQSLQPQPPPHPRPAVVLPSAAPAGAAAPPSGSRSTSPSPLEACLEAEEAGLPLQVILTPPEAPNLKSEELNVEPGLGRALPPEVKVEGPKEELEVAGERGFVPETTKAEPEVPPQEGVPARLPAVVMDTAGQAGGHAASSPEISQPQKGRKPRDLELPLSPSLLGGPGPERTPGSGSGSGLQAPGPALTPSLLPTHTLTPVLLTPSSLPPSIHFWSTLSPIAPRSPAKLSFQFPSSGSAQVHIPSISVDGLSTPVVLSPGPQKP
Assay: custom PBM
Details: custom protein-binding microarray; buffer, salt, pH and temperature not stated; high values mean tight binding; double strand, one strand shown

Question: “TCTGGCTACCAGCTCCACCCACTTCAGGCCTTGTAGGTCTTGATTCGCTTGACGCTGCTG” was tested. Which binding signal (log fluorescence intensity) did it give?
Answer: Its binding signal (log fluorescence intensity) is 8.82.

Question: With “CACAATTTTTACAGTAATGTAACACGCGTAACTCCTGTCTTGATTCGCTTGACGCTGCTG” as the sequence, how does the binding signal (log fluorescence intensity) read?
Answer: Its binding signal (log fluorescence intensity) is 8.98.

Question: Which binding signal (log fluorescence intensity) does the source give for “TGTCGGGTAAGGTAATGTAGATCACGTGAATGAAAAGTCTTGATTCGCTTGACGCTGCTG” here?
Answer: The binding signal (log fluorescence intensity) was 8.86.

Question: “TAAAGGGAAGACGGTTGTGGTAGTTCCTGGTATTAAGTCTTGATTCGCTTGACGCTGCTG” was tested. Which binding signal (log fluorescence intensity) did it give?
Answer: The binding signal (log fluorescence intensity) was 9.32.

Question: With “GCTGCTGCGGTGCATCCCCCACCGGATGTGACCCCGGTCTTGATTCGCTTGACGCTGCTG” as the sequence, how does the binding signal (log fluorescence intensity) read?
Answer: The binding signal (log fluorescence intensity) was 10.3.

Question: “TAAAGTGAAGACGGTTGTGGTAGTTCCGGGTATTAAGTCTTGATTCGCTTGACGCTGCTG” was tested. Which binding signal (log fluorescence intensity) did it give?
Answer: The binding signal (log fluorescence intensity) was 11.

Question: How did the binding signal (log fluorescence intensity) turn out when “TGTCGGGTAAGGGAATGTAGATCACGTGAATGAAACGTCTTGATTCGCTTGACGCTGCTG” was run?
Answer: Its binding signal (log fluorescence intensity) is 8.81.

Question: Which binding signal (log fluorescence intensity) does the source give for “GGAAAAAGGCCCAGGGTAACACCGGAAGTGGGGTTAGTCTTGATTCGCTTGACGCTGCTG” here?
Answer: The binding signal (log fluorescence intensity) was 10.9.

Question: Which binding signal (log fluorescence intensity) does the source give for “TAAAGGGAAGACGGTTGTGGTAGTCCCGGGTATTAAGTCTTGATTCGCTTGACGCTGCTG” here?
Answer: The binding signal (log fluorescence intensity) was 8.96.

Question: For “GGAAAAAGGCCCAGGGGAACACCGGAAGTGGGCTTAGTCTTGATTCGCTTGACGCTGCTG”, which binding signal (log fluorescence intensity) is on record?
Answer: Its binding signal (log fluorescence intensity) is 10.7.

Question: Which binding signal (log fluorescence intensity) does the source give for “TGCCGGGTAAGGGAATGTAGATCACGTGAATGAAAAGTCTTGATTCGCTTGACGCTGCTG” here?
Answer: Its binding signal (log fluorescence intensity) is 8.85.

Question: With “GTGTATAGGTTCCCATCCAACACACGTGTTAAAATGGTCTTGATTCGCTTGACGCTGCTG” as the sequence, how does the binding signal (log fluorescence intensity) read?
Answer: The binding signal (log fluorescence intensity) was 8.89.

Question: With “TATAGGGAAGACGGTTGTGGTAGTTCCGGGTATTAAGTCTTGATTCGCTTGACGCTGCTG” as the sequence, how does the binding signal (log fluorescence intensity) read?
Answer: The binding signal (log fluorescence intensity) was 11.2.

Question: “GATTACTTTCTGCCCTTATTCGCACGTGCCATAACAGTCTTGATTCGCTTGACGCTGCTG” was tested. Which binding signal (log fluorescence intensity) did it give?
Answer: Its binding signal (log fluorescence intensity) is 8.82.

Question: For “TACTGACTTATATATGTGAATGCACATGAATAGACCGTCTTGATTCGCTTGACGCTGCTG”, which binding signal (log fluorescence intensity) is on record?
Answer: Its binding signal (log fluorescence intensity) is 8.85.

Question: Which binding signal (log fluorescence intensity) does the source give for “CGGAAGTGTCGTATACGTCGGATATCCGGTTCTTCTGTCTTGATTCGCTTGACGCTGCTG” here?
Answer: The binding signal (log fluorescence intensity) was 12.5.

Question: How did the binding signal (log fluorescence intensity) turn out when “GCTGCTGCGGTGCATACCCCACCGGATGTGACCTCGGTCTTGATTCGCTTGACGCTGCTG” was run?
Answer: The binding signal (log fluorescence intensity) was 10.1.

Question: Which binding signal (log fluorescence intensity) does the source give for “GGAAAAAAGCCCAGGGTAACACCGGAAGTGGGCTTAGTCTTGATTCGCTTGACGCTGCTG” here?
Answer: The binding signal (log fluorescence intensity) was 10.8.

Question: For “CACATTTTTTACAGTAATGTAGCACGCGTAACTCCTGTCTTGATTCGCTTGACGCTGCTG”, which binding signal (log fluorescence intensity) is on record?
Answer: The binding signal (log fluorescence intensity) was 8.86.

Question: With “GTGTATAGGATCCCATCCAAGACACGTGTTAAAATGGTCTTGATTCGCTTGACGCTGCTG” as the sequence, how does the binding signal (log fluorescence intensity) read?
Answer: The binding signal (log fluorescence intensity) was 8.91.

Question: With “GTGTATAGGATCCCATCCAACACACGTGTTAAAGTGGTCTTGATTCGCTTGACGCTGCTG” as the sequence, how does the binding signal (log fluorescence intensity) read?
Answer: The binding signal (log fluorescence intensity) was 8.86.

Question: How did the binding signal (log fluorescence intensity) turn out when “CACAATTTGTACAGTAATGTAGCACGCGTAACTCCTGTCTTGATTCGCTTGACGCTGCTG” was run?
Answer: Its binding signal (log fluorescence intensity) is 8.91.

Question: “TAAAGGGAAGACGGTTGTGGTAGCTCCGGGTATTAAGTCTTGATTCGCTTGACGCTGCTG” was tested. Which binding signal (log fluorescence intensity) did it give?
Answer: Its binding signal (log fluorescence intensity) is 9.01.
